# Results from the supplement of paper PMC4604168 (melanoma cell lines).
# This is one part of the list. Repeats are few or missing, and single values can be far off.
# System: A375
# Test: cell count relative to DMSO control; melanoma cells; higher = more viable cells
# Conditions: library dose: standard library concentration; 72 h
# 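Also: cells treated in 1,536-well plates, then fixed and DAPI-stained, with nuclei counted from automated high-throughput microscope images.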
row,Structure (SMILES),cell count [%]
1,"CS(=O)(=O)c1ccc(C(=O)Nc2ccc(Cl)c(-c3ccccn3)c2)c(Cl)c1 [vismodegib] + Cc1cc(N2CCOCC2)cc2[nH]c(-c3c(NC[C@@H](O)c4cccc(Cl)c4)cc[nH]c3=O)nc12 [BMS536924] (first compound 5 µM, partner dose 1 µM)",128
2,"CN(c1ncccc1CNc1nc(Nc2ccc3c(c2)CC(=O)N3)ncc1C(F)(F)F)S(C)(=O)=O + C[C@]1(c2nc3c(C(N)=O)cccc3[nH]2)CCCN1 [Veliparib] (first compound 0.4 µM, partner dose 7 µM)",84
3,"CS(=O)(=O)c1ccc(C(=O)Nc2ccc(Cl)c(-c3ccccn3)c2)c(Cl)c1 [vismodegib] + Nc1cccc2c1CN(C1CCC(=O)NC1=O)C2=O [lenalidomide] (first compound 5 µM, partner dose 5 µM)",138
4,"C=C(c1ccc(C(=O)O)cc1)c1cc2c(cc1C)C(C)(C)CCC2(C)C [Bexarotene] + C=CCNC1=C2C[C@@H](C)C[C@H](OC)[C@H](O)[C@@H](C)/C=C(\C)[C@H](OC(N)=O)[C@@H](OC)/C=C\C=C(/C)C(=O)NC(=CC1=O)C2=O [Tanespimycin] (first compound 10 µM, partner dose 0.01 µM)",82.6
5,"NC1(c2ccc(-c3nc4ccn5c(=O)[nH]nc5c4cc3-c3ccccc3)cc2)CCC1 + Cn1c(=O)n(-c2ccc(C(C)(C)C#N)cc2)c2c3cc(-c4cnc5ccccc5c4)ccc3ncc21 [NVP-BEZ235] (first compound 2 µM, partner dose 0.02 µM)",63.5
6,"CN(c1ncccc1CNc1nc(Nc2ccc3c(c2)CC(=O)N3)ncc1C(F)(F)F)S(C)(=O)=O + O=C(Nc1cccc(Cl)c1)Nc1ncc(CCNc2ncnc3ccsc23)s1 [SNS314] (first compound 0.4 µM, partner dose 0.004 µM)",58.6
7,"CCCS(=O)(=O)Nc1ccc(F)c(C(=O)c2c[nH]c3ncc(Cl)cc23)c1F + CC(C)(C)c1cnc(CSc2cnc(NC(=O)C3CCNCC3)s2)o1 [SNS-032] (first compound 0.4 µM, partner dose 0.05 µM)",78.5
8,"CN(c1ncccc1CNc1nc(Nc2ccc3c(c2)CC(=O)N3)ncc1C(F)(F)F)S(C)(=O)=O + C[C@@H]1CCN(C(=O)CC#N)C[C@@H]1N(C)c1ncnc2[nH]ccc12 [CP690550] (first compound 0.4 µM, partner dose 5 µM)",84.1
9,"NC1(c2ccc(-c3nc4ccn5c(=O)[nH]nc5c4cc3-c3ccccc3)cc2)CCC1 + CO[C@@H]1[C@H](N(C)C(=O)c2ccccc2)C[C@H]2O[C@]1(C)n1c3ccccc3c3c4c(c5c6ccccc6n2c5c31)C(=O)NC4 [Midostaurin] (first compound 2 µM, partner dose 0.4 µM)",67.2
10,"C=C(c1ccc(C(=O)O)cc1)c1cc2c(cc1C)C(C)(C)CCC2(C)C [Bexarotene] + Cn1c(Nc2ccc(C(F)(F)F)cc2)nc2cc(Oc3ccnc(-c4ncc(C(F)(F)F)[nH]4)c3)ccc21 [CHIR265] (first compound 10 µM, partner dose 0.4 µM)",89.8
11,"CCCS(=O)(=O)Nc1ccc(F)c(C(=O)c2c[nH]c3ncc(Cl)cc23)c1F + O=C(Nc1cccc(Cl)c1)Nc1ncc(CCNc2ncnc3ccsc23)s1 [SNS314] (first compound 0.4 µM, partner dose 0.004 µM)",95
12,"NC1(c2ccc(-c3nc4ccn5c(=O)[nH]nc5c4cc3-c3ccccc3)cc2)CCC1 + CC(C)(C)c1cnc(CSc2cnc(NC(=O)C3CCNCC3)s2)o1 [SNS-032] (first compound 2 µM, partner dose 0.05 µM)",117
13,"CN(c1ncccc1CNc1nc(Nc2ccc3c(c2)CC(=O)N3)ncc1C(F)(F)F)S(C)(=O)=O + Cc1nc(Nc2ncc(C(=O)Nc3c(C)cccc3Cl)s2)cc(N2CCN(CCO)CC2)n1 [dasatanib] (first compound 0.4 µM, partner dose 0.02 µM)",50.9
14,"NC1(c2ccc(-c3nc4ccn5c(=O)[nH]nc5c4cc3-c3ccccc3)cc2)CCC1 + CNC(=O)c1cc(Oc2ccc(NC(=O)Nc3ccc(Cl)c(C(F)(F)F)c3)cc2)ccn1 [sorafenib] (first compound 2 µM, partner dose 2 µM)",137
